{
  "source": "PubChem BioAssay AID1671194",
  "about": "(National Center for Advancing Translational Sciences (NCATS), 2021)",
  "note": "Screen size: about 140,000 compounds; about 240 (0.17%) were called active. The inconclusive results got no clear call from the source; some entries with a clear call stand among them for comparison. Calls come from the whole dose curve; as a rule, active = well fitted inhibition curve with a large enough effect; inconclusive = small, poorly fitted or top-dose-only effect; inactive = no such curve, though single readings can be large or run the other way. Potencies beside an inconclusive call are fits to weak or partial responses and may not hold up. Potency is the fitted concentration of half-maximal effect; tags give direction and shape of the fitted curve.",
  "data": [
    {"test": "Primary qHTS assay for inhibitors of alpha-synuclein gene (SNCA) expression; note: nearly all actives have a fitted effect of over 45% in size", "settings": "HEK-293 SNCA-luciferase knock-in, luminescence, 24 h; series mostly up to 57.2 µM", "values": [
      {"smiles": "CC[C@H]1CN(C(=O)c2ccnc(Cl)c2)CC[C@H]1CC(=O)N(C)CC#N", "Potency": "inconclusive: 7.08 µM [inhibitor, single point]"},
      {"smiles": "Cc1nc(N2CCC(NC(=O)c3ccccn3)CC2)cc(C(F)(F)F)n1", "Potency": "inconclusive: 39.8 µM [inhibitor, single point]"},
      {"smiles": "CCCCN(CC)CCCNC(=O)c1cn(CC)c2ccc(S(=O)(=O)N3CCc4ccccc4C3)cc2c1=O", "Potency": "inconclusive: 12.6 µM [inhibitor, partial curve]"},
      {"smiles": "COc1cc(Cl)ccc1C(=O)N1CCC2(CC1)NC(=O)N(c1ccc(F)cc1)N2", "Potency": "inactive"},
      {"smiles": "O=C1Nc2ccc(-c3ccc4c(c3)OCO4)cc2C(=O)N2CCN(C(=O)c3cccs3)C[C@@H]12", "Potency": "inactive"},
      {"smiles": "O=C(/C=C/c1ccc(Cl)cc1)N1CCC(c2nc3ccccc3o2)CC1", "Potency": "inactive"},
      {"smiles": "Cc1ccc(C(=O)NC2CCN(c3cc(-c4ccc(F)cc4)[nH]n3)CC2)cc1", "Potency": "inactive"},
      {"smiles": "COc1ccccc1-c1ccc(C(=O)N2CCC(C(=O)NCCCc3ccccc3)CC2)cc1", "Potency": "inactive"},
      {"smiles": "CN(C)C[C@@H]1CN(c2ccccn2)C[C@H]1NC(=O)c1ccc2c(c1)OCO2", "Potency": "inactive"},
      {"smiles": "COc1ccc2nc3n(c2c1)[C@@H](CNC(=O)c1ccc(F)cc1)COC3", "Potency": "inactive"},
      {"smiles": "CC(=O)N(C1CC1)C1CCOC2(CCN(C(=O)c3ccsc3)CC2)C1", "note": "(centres undefined)", "Potency": "inconclusive: 7.94 µM [inhibitor, single point]"},
      {"smiles": "Cc1ncccc1C(=O)N1CCCCCCN(C)C(=O)[C@@H]2CCC[C@@H]21", "Potency": "inconclusive: 39.8 µM [inhibitor, single point]"},
      {"smiles": "CN(C)C(=O)c1nc(-c2ccc(Cl)cc2)c2ccccn12", "Potency": "inconclusive: 6.31 µM [inhibitor, partial curve, poor fit]"},
      {"smiles": "COc1ccc(-c2nc3cnc(N4CCNCC4)nc3n(Cc3cccc(OC)c3)c2=O)cc1", "Potency": "inconclusive: 7.08 µM [inhibitor, single point]"},
      {"smiles": "O=C(NC1CCCC1)c1ccc2c(c1)n(Cc1cccc(F)c1)c(=O)c1ccnn12", "Potency": "inactive"},
      {"smiles": "O=C(NC1C[C@H]2CC[C@@H](C1)N2C(=O)Cc1cccc(F)c1)c1ccncc1", "note": "(some centres undefined)", "Potency": "inconclusive: 7.08 µM [inhibitor, full curve, poor fit]"},
      {"smiles": "Cn1cc(CN2Cc3ccc(C(=O)Nc4ccc(F)cc4)cc3OCC2=O)cn1", "Potency": "inactive"},
      {"smiles": "COc1ccc2[nH]cc(CCNc3ncncc3-c3ccccc3C)c2c1", "Potency": "inconclusive: 39.8 µM [inhibitor, single point]"},
      {"smiles": "O=C(C1CC1)N1CCc2cc(Br)cc(S(=O)(=O)Nc3ccc(F)c(F)c3)c21", "Potency": "inconclusive: 39.8 µM [inhibitor, single point]"}
    ]}
  ]
}
